Screen size: about 48,000 compounds; about 120 (0.25%) were called active. About 4% were inconclusive and are not listed. Calls come from the whole dose curve; as a rule, active = well fitted activation curve with a large enough effect; inconclusive = small, poorly fitted or top-dose-only effect, or another doubt; inactive = no such curve, though single readings can be large or run the other way. Some of the results follow.
Experiment: Primary qHTS for Identification of Small Molecule Activators of Huntingtin-Antisense Promoter Activity; note: nearly all actives have a fitted effect of over 55% in size
Settings: HEK293 HTT-AS promoter firefly luciferase reporter (activity 0% = vehicle and -100% = no light), 24 h; series mostly up to 57.5 µM; activity change, positive = activation: at the top concentration
Outline: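 Firefly luciferase signal from promoter-reporter HEK293 cells was scaled between vehicle (0%) and zero RLU (-100%). Compounds were tested at final concentrations of up to 57.5 uM over 24 h at 37 degrees C. PTC124 at 50 uM final served as control inhibitor.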

Activity change, positive = activation, inactive:
COC[C@@H](c1ccc(C(F)(F)F)cc1)N1CCN(C2(C)CCN(C(=O)c3c(C)ncnc3C)CC2)C[C@H]1C -16.6%, CCOc1ccc(OCC)c(NS(=O)(=O)c2ccc3[nH]c(=O)ccc3c2)c1 -14%, CC(=O)Nc1ccc(NC(=O)Cn2c(=O)ccc3cc(S(=O)(=O)N4CCC(C)CC4)ccc32)cc1 -12.8%, CC(NC(=O)C1=Cc2ccccc2OC1)c1ccccc1 (centres undefined) -11.8%, COc1cc2nc(SCC(=O)Nc3cccc(C)c3)n3nc(CCn4c(C)nc5ccccc54)nc3c2cc1OC -1.2%, Cn1c(=O)cc(OCC(=O)N2CCN(c3ccc(F)cc3)CC2)c2ccccc21 -8.31%, CCOc1ccccc1Nc1ncnc2c1c(-c1ccccc1)cn2-c1ccc(OC)cc1 -16.2%, CCOCN(C(=O)Cn1c(CC(C)C)nc2ccccc21)c1c(C)cccc1CC -25.4%, CC(C)c1ccc(NC(=O)C(NS(=O)(=O)c2ccc3c(c2)CCC(=O)N3)c2ccccc2)cc1 (centres undefined) -7.84%, COc1cc(OC)cc(-c2cc3nc(C)c(CCC(=O)Nc4ccc(F)c(Cl)c4)c(C)n3n2)c1 -82.6%, Cc1c(Cl)cccc1NC(=O)C(C)N(c1ccccc1)S(C)(=O)=O (centres undefined) -12.5%, Cc1ccc(-c2cn3cccnc3n2)cc1NC(=O)Cc1ccccc1 -0.686%, O=S(=O)(c1ccccc1)c1nc(-c2ccccc2)oc1N1CCN(c2cccc(Cl)c2)CC1 -16.1%, O=C(CSCc1cnn(-c2ccccc2)c1-n1cccc1)NCc1ccccc1Br -29.2%, CCc1ccc(NC(=O)COCc2cc(-c3ccc(F)cc3)on2)cc1 2.45%, CC(=O)Nc1ccc(S(=O)(=O)N(Cc2ccccc2)Cc2ccccc2)cc1 -29.3%, CCOc1ccccc1-c1nc(C(N)=O)c2c(n1)n(-c1ccc3c(c1)OCO3)c(=O)n2C -8.88%, C=Cc1ccc(Cn2c(=O)n(CC3CCC(C(=O)NC(C)C)CC3)c(=O)c3sccc32)cc1 (centres undefined) -15.7%, O=C(NCc1ccco1)c1ccc2c(c1)N(Cc1ccccc1F)C(=O)c1ccccc1S2(=O)=O -21.3%, CCn1c(=O)cc(SCC(=O)NCc2ccc(C)cc2)c2ccccc21 21.7%, CCCCNC(=O)c1ccc2c(c1)NC(=O)C(CS(=O)(=O)Cc1ccc(F)cc1Cl)N2 (centres undefined) -20.2%, COc1cccc(-c2ccc3c(N)c(C(=O)Nc4ccccc4C)sc3n2)c1 -6.87%, CCCC(=O)Nc1ccc2nc(SCc3ccc(C)cc3)sc2c1 -12.5%, Nc1ccc2oc(Cc3ccc(Cl)cc3)nc2c1 -11.1%, COc1ccc(C)cc1NC(=O)Cc1c(C(=O)O)c(C)cn1C -14.6%, CCOc1ccc(NC(=O)CN(C)S(=O)(=O)c2ccc3[nH]c4c(c3c2)CCCC4)cc1 -31.6%, COc1ccc(C(=O)N2CCN(c3nc4c(C)c(Cl)ccc4s3)CC2)c(OC)c1 -30.4%, CCCCNc1nc2c(c(=O)n(Cc3ccccc3)c(=O)n2C)n1C -5.85%, Cc1ccc(Cl)cc1N1CCN(C(=O)C2CCCN(Cc3nc(-c4cccc(Cl)c4)oc3C)C2)CC1 (centres undefined) -46.1%, COc1ccc(N(C)C(=O)c2cc3c(s2)-c2ccccc2OC3)cc1 -7.39%, Cc1ccc(NC(=O)C2CCCN(S(=O)(=O)c3ccc4c(c3)CCCC(=O)N4)C2)cc1Cl (centres undefined) -36.8%, O=C(c1ccc(Cl)cc1)c1cn(Cc2ccccc2)c2cc3c(cc2c1=O)OCCO3 -16.5%, Cc1ccc(NC(=O)Cn2c(=O)ccc3cc(S(=O)(=O)N4CCCC4)ccc32)cc1N(C)C -33.5%, Cc1cc(C(=O)Nc2cccc(C)c2C)c2c(C)nn(-c3cccc(F)c3)c2n1 -8.09%, COc1cc(OC)c(OC)cc1/C=C/c1nc2ccccc2c(=O)n1-c1ccc(Br)c(C)c1 -20.6%, O=C(NCc1ccc(Cl)cc1)c1ccc2c(c1)N(Cc1ccccc1F)C(=O)c1ccccc1S2=O (centres undefined) -20.7%, CCc1ccc(CNC(=O)c2ccc(CS(=O)(=O)Cc3cccc(C)c3)o2)cc1 -29.3%, COc1ccc(CCNC(=O)C(=O)NCC(c2cccnc2)N2CCN(c3ccccc3)CC2)cc1 (centres undefined) -63.7%, CCC(C(=O)NCCc1ccc(Cl)cc1)n1ccc2cc(S(=O)(=O)N3CCCCC3)ccc21 (centres undefined) -31.3%, Cc1cccc(C)c1NC(=O)CN1C(=O)c2ccccc2Sc2ncccc21 -8.35%, COC(=O)c1cc2sc(C)cc2n1CC(=O)Nc1ccc(C)cc1Cl -11%, COc1ccc(-c2noc(CSc3nnc(-c4ccccc4)n3C)n2)cc1 -6.65%, CCCOC(=O)c1ccc(Nc2c(C(=O)OCC)cnc3c(C)cc(Cl)cc23)cc1 -20.9%, CC(C)OCCCNC(=O)c1nn(C)c2c1CSc1ccccc1-2 -5.37%, CC(=O)N1CCN(c2ccc(OC[C@H]3CO[C@](Cn4ccnc4)(c4ccc(Cl)cc4Cl)O3)cc2)CC1 -31%, COc1ccc(C)cc1NC(=O)CN1CCN(S(=O)(=O)c2ccc(Br)cc2)CC1 -22.5%, Cc1cccc(-n2cnc3cc(C(=O)NC4CCCCCC4)ccc32)c1 -36.1%, CC(C)CCn1c(=O)c2sccc2n2c(CCCC(=O)NC(C)c3ccccc3)nnc12 (centres undefined) 2.46%, CC(=O)c1cccc(NC(=O)CSc2nc3c(=O)n(C)c(=O)n(C)c3n2C)c1 11.8%, Cc1cccc(OCC(=O)Nc2ccccc2C(=O)OCc2cc(=O)n3nc(C4CC4)sc3n2)c1 16.8%, Cc1ccc(CCNC(=O)c2cc3c(=O)n(C)c4ccccc4c3n2C)cc1 -8.57%, CC(=O)[C@H]1CC[C@H]2[C@@H]3CCC4=CC(=O)CC[C@]4(C)[C@H]3CC[C@]12C -34.1%, Cc1cccc(N2CCN(c3nc4ccccc4c4nc(-c5cccnc5)nn34)CC2)c1C -9.37%, CCc1cccc(N2C(=O)N(Cc3c(F)cccc3Cl)c3ccccc3S2(=O)=O)c1 -13%, CCn1cc(C(=O)Nc2ccc(C(C)C)cc2)c2cc(OC)c(OC)cc2c1=O -41.6%, CCOC(=O)c1ccc(NC(=O)c2c(NCc3cc(OC)ccc3OC)sc3c2CCC3)cc1 5.68%, CCc1cnc2c(c1SCCC(C)C)c(=O)n(C)c(=O)n2C -36.5%, Cc1cccc(Oc2ccc(NC(=O)CCC(=O)OCC(=O)c3ccc(Br)cc3)cc2)c1C -12.9%, COc1cccc(C(C(=O)NCc2ccccc2)N(C(=O)Cn2nnc3ccccc32)c2cccc(C(C)=O)c2)c1 (centres undefined) -11.1%, Cc1ccc(C)c(CSc2cn(CCNC(=O)c3ccccc3F)c3ccccc23)c1 -40.9%, COc1cc(C2c3c(-c4ccccc4O)n[nH]c3C(=O)N2CCO)ccc1OCC(C)C (centres undefined) -16.1%, COc1ccc(Cc2c(C)nn(-c3nc(C)c(C(=O)Nc4ccc(C)cc4C)s3)c2C)cc1 -15.4%, COc1ccc(NC(=O)c2oc3ccc(S(=O)(=O)N4CCC5(CC4)OCCO5)cc3c2C)cc1Cl -46.5%, COc1ccc(NC(=O)C2CCC(CNS(=O)(=O)c3cccs3)CC2)cc1OC (centres undefined) -9.89%, Clc1ccccc1-c1nnc(-c2ccccc2CNc2ccccc2)o1 17.1%, Cc1ccccc1CSCCNC(=O)CN(c1ccccc1)S(=O)(=O)N(C)C -28.6%, COc1ccccc1CNC(=O)c1cc2ccc3ccc(C)[nH]c3c2n1 -8.33%, CCN1CCc2c(sc(-n3cccc3)c2C(C)NC(=O)Nc2ccccc2C)C1 (centres undefined) -6.26%, Cc1cccc(CC(=O)Nc2cccc(-c3nc4cccnc4s3)c2)c1 19.5%, OC(CN1CCC(Cc2ccc(F)cc2)CC1)c1ccc(Cl)cc1 (centres undefined), Cc1ccc(C)c(N2CCN(S(=O)(=O)c3csc(C(N)=O)c3)CC2)c1 -47.9%, CCCN1CCN(CCCNC(=O)Cn2c(-c3cccs3)cc3cc(Cl)ccc32)CC1 -26.6%, Cc1ccc(CNC(=O)CSC2=Nc3ccccc3C3=NC(C)C(=O)N23)cc1 (centres undefined) -3.54%, Cc1ccc2occ(CC(=O)N3CCN(c4cccc(Cl)c4)CC3)c2c1 -29.8%, CC(=O)Nc1cccc(NC(=O)C(=O)NCCc2csc3nc(-c4ccccc4F)nn23)c1 -0.841%, CCOC(=O)c1ccccc1NC(=O)c1nn(C)c2c1COc1ccccc1-2 -9%, CC(C)CCNC(=O)c1cn(C)c2ccc(S(=O)(=O)N3CCOCC3)cc2c1=O -11.2%, COc1ccccc1N1CCN(S(=O)(=O)c2ccc(-c3cnc(C4CC4)o3)cc2)CC1 -4.64%, CCc1cccc(NC(=O)CCS(=O)(=O)c2cc3c4c(c2)CCN4C(=O)CC3)c1 -2.39%, Cc1c(Cl)cccc1-n1nc(C)c2c(C)cc(=O)n(CC(=O)NCc3ccccc3)c21 -18.3%, COc1cc2c(cc1OC)C(COc1ccccc1OC)N(C(=O)c1ccccc1OC)CC2 (centres undefined) -14.3%, Cc1cc(C)c(NC(=O)Cn2c(=O)n(Cc3ccccc3)c(=O)c3c(C)c(C(=O)N(C)C)sc32)c(C)c1 -14.6%, COc1cc2c(=O)c(S(=O)(=O)c3ccccc3)cn(CC(=O)Nc3ccccc3C)c2cc1OC -2.63%, COc1cc(OC)c(NC(=O)c2c3c(nc4ccccc24)C(=O)N(C2CCCCC2)C3)cc1Cl -10.8%, CCOc1ccccc1NC(=O)CN1CCN(S(=O)(=O)c2ccc(Br)cc2)CC1 -11%, CCS(=O)(=O)N1CCc2cc(C(=O)Nc3ccc(OC)cc3OC)ccc21 -18.1%, CCC1CCCCN1Cc1cn2c(-c3ccc(Br)cc3)nnc2s1 (centres undefined) -3.04%, CC(=O)c1cccc(NC(=O)c2nc(-c3ccccc3)n(-c3cccc(C)c3)n2)c1 -4.66%, COc1c(Cl)cc(Cl)cc1CNCCSc1nnnn1C -10.4%, O=C(Nc1nc2n(n1)C(c1ccc(F)cc1)C=C(c1ccccc1)N2)c1cccc([N+](=O)[O-])c1 (centres undefined) -21.7%, CCC(C)NC(=O)CSc1nc2cc3c(cc2c(=O)n1CCCCCC(=O)NCc1ccc(OC)cc1)OCO3 (centres undefined) -7.4%, CCCCc1ccc(NC(=O)CSc2nnc3[nH]c(=O)cc(C)n23)cc1 12%, CCCN1CCN(CCCNC(=O)c2ccc(CS(=O)c3ccc(OC)cc3)o2)CC1 (centres undefined) -1.17%, CCCN(CCC)C(=O)CSc1nnc2cc(C)c3ccccc3n12 -7.23%

Source: PubChem BioAssay AID1508624 (National Center for Advancing Translational Sciences (NCATS), 2021)
